Data: a compilation of properties of binary mixtures (doi:10.1021/acs.jced.5b00753)
The densities may have been worked out from excess volumes.

Assay: xn = mol fraction of the nth substance listed
Conditions: 101 kPa

CC[n+]1ccn(C)c1.F[B-](F)(F)F + CC(=O)N(C)C
mass density (303.15 K, x2 = 0.0996): 1254.1 kg/m3 | mass density (303.15 K, x2 = 0.2995): 1209.3 kg/m3 | mass density (303.15 K, x2 = 0.3989): 1184.7 kg/m3 | mass density (303.15 K, x2 = 0.8994): 993.7 kg/m3 | mass density (313.15 K, x2 = 0): 1265.2 kg/m3 | mass density (313.15 K, x2 = 0.0996): 1246.5 kg/m3 | mass density (313.15 K, x2 = 0.1998): 1225.3 kg/m3 | mass density (313.15 K, x2 = 0.2995): 1201.6 kg/m3 | mass density (313.15 K, x2 = 0.3989): 1176.9 kg/m3 | mass density (313.15 K, x2 = 0.6996): 1078.3 kg/m3 | mass density (313.15 K, x2 = 0.8001): 1035.1 kg/m3 | mass density (313.15 K, x2 = 0.8994): 985 kg/m3 | mass density (323.15 K, x2 = 0.0996): 1239 kg/m3 | mass density (323.15 K, x2 = 0.1998): 1217.7 kg/m3 | mass density (323.15 K, x2 = 0.3989): 1169.1 kg/m3 | mass density (323.15 K, x2 = 0.5005): 1139.8 kg/m3 | mass density (323.15 K, x2 = 0.6): 1107.3 kg/m3 | mass density (323.15 K, x2 = 0.6996): 1070.1 kg/m3 | mass density (323.15 K, x2 = 0.8001): 1026.7 kg/m3 | mass density (323.15 K, x2 = 0.8994): 976.2 kg/m3 | mass density (333.15 K, x2 = 0): 1250.3 kg/m3 | mass density (333.15 K, x2 = 0.0996): 1231.5 kg/m3 | mass density (333.15 K, x2 = 0.1998): 1210.2 kg/m3 | mass density (333.15 K, x2 = 0.5005): 1132 kg/m3 | mass density (333.15 K, x2 = 0.6): 1099.3 kg/m3 | mass density (333.15 K, x2 = 0.6996): 1062 kg/m3 | mass density (333.15 K, x2 = 0.8001): 1018.2 kg/m3 | mass density (333.15 K, x2 = 0.8994): 967.5 kg/m3

CC(=O)N(C)C + CC[n+]1ccn(C)c1.F[B-](F)(F)F
mass density (303.15 K, x1 = 1): 931.7 kg/m3 | mass density (313.15 K, x1 = 1): 922.4 kg/m3 | mass density (323.15 K, x1 = 1): 913.2 kg/m3 | mass density (333.15 K, x1 = 1): 903.9 kg/m3

CS(C)=O + CC[n+]1ccn(C)c1.F[B-](F)(F)F
mass density (303.15 K, x1 = 1): 1090.4 kg/m3 | mass density (313.15 K, x1 = 1): 1080.4 kg/m3 | mass density (323.15 K, x1 = 1): 1070.3 kg/m3 | mass density (333.15 K, x1 = 1): 1060.3 kg/m3

CC[n+]1ccn(C)c1.F[B-](F)(F)F + CN(C)C=O
mass density (303.15 K, x2 = 0): 1272.8 kg/m3 | mass density (303.15 K, x2 = 0.1016): 1256.8 kg/m3 | mass density (303.15 K, x2 = 0.2994): 1220.6 kg/m3 | mass density (303.15 K, x2 = 0.3987): 1198.4 kg/m3 | mass density (303.15 K, x2 = 0.5005): 1172.1 kg/m3 | mass density (303.15 K, x2 = 0.6004): 1141.9 kg/m3 | mass density (303.15 K, x2 = 0.7): 1106 kg/m3 | mass density (303.15 K, x2 = 0.7997): 1063 kg/m3 | mass density (303.15 K, x2 = 0.8999): 1009.2 kg/m3 | mass density (313.15 K, x2 = 0.1016): 1249.2 kg/m3 | mass density (313.15 K, x2 = 0.2994): 1212.8 kg/m3 | mass density (313.15 K, x2 = 0.6004): 1133.8 kg/m3 | mass density (313.15 K, x2 = 0.7): 1097.7 kg/m3 | mass density (313.15 K, x2 = 0.8999): 1000.2 kg/m3 | mass density (323.15 K, x2 = 0.1016): 1241.6 kg/m3 | mass density (323.15 K, x2 = 0.7): 1089.3 kg/m3 | mass density (323.15 K, x2 = 0.7997): 1045.7 kg/m3 | mass density (333.15 K, x2 = 0): 1250.3 kg/m3 | mass density (333.15 K, x2 = 0.1016): 1234.1 kg/m3 | mass density (333.15 K, x2 = 0.2994): 1197.5 kg/m3 | mass density (333.15 K, x2 = 0.5005): 1148.3 kg/m3 | mass density (333.15 K, x2 = 0.6004): 1117.6 kg/m3 | mass density (333.15 K, x2 = 0.7): 1081.1 kg/m3 | mass density (333.15 K, x2 = 0.7997): 1037.2 kg/m3 | mass density (333.15 K, x2 = 0.8999): 982.3 kg/m3

CC[n+]1ccn(C)c1.F[B-](F)(F)F + CS(C)=O
mass density (303.15 K, x2 = 0): 1272.8 kg/m3 | mass density (303.15 K, x2 = 0.1001): 1266.4 kg/m3 | mass density (303.15 K, x2 = 0.4996): 1222.1 kg/m3 | mass density (303.15 K, x2 = 0.7002): 1186.2 kg/m3 | mass density (303.15 K, x2 = 0.9002): 1131.1 kg/m3 | mass density (313.15 K, x2 = 0): 1265.2 kg/m3 | mass density (313.15 K, x2 = 0.1001): 1258.7 kg/m3 | mass density (313.15 K, x2 = 0.2007): 1249.5 kg/m3 | mass density (313.15 K, x2 = 0.4): 1227.6 kg/m3 | mass density (313.15 K, x2 = 0.4996): 1214 kg/m3 | mass density (313.15 K, x2 = 0.6002): 1197.6 kg/m3 | mass density (313.15 K, x2 = 0.7002): 1177.7 kg/m3 | mass density (313.15 K, x2 = 0.7996): 1153.3 kg/m3 | mass density (313.15 K, x2 = 0.9002): 1121.8 kg/m3 | mass density (323.15 K, x2 = 0): 1257.7 kg/m3 | mass density (323.15 K, x2 = 0.1001): 1251.1 kg/m3 | mass density (323.15 K, x2 = 0.2007): 1241.9 kg/m3 | mass density (323.15 K, x2 = 0.2996): 1231.7 kg/m3 | mass density (323.15 K, x2 = 0.4996): 1205.9 kg/m3 | mass density (323.15 K, x2 = 0.6002): 1189.3 kg/m3 | mass density (323.15 K, x2 = 0.7002): 1169.3 kg/m3 | mass density (323.15 K, x2 = 0.7996): 1144.5 kg/m3 | mass density (333.15 K, x2 = 0): 1250.3 kg/m3 | mass density (333.15 K, x2 = 0.1001): 1243.7 kg/m3 | mass density (333.15 K, x2 = 0.2007): 1234.3 kg/m3 | mass density (333.15 K, x2 = 0.2996): 1224 kg/m3 | mass density (333.15 K, x2 = 0.4): 1211.9 kg/m3 | mass density (333.15 K, x2 = 0.4996): 1198 kg/m3 | mass density (333.15 K, x2 = 0.6002): 1181.2 kg/m3 | mass density (333.15 K, x2 = 0.7002): 1160.8 kg/m3 | mass density (333.15 K, x2 = 0.7996): 1135.8 kg/m3
